The whole screen tested about 43,000 compounds, of which about 200 (0.47%) were called active. Another 12% or so got no clear call; they are omitted. The call rests on the fitted dose curve; in most records, active means well fitted cell-killing curve with a large enough effect; inconclusive means small, poorly fitted or top-dose-only effect, or effect the other way; inactive means flat fitted curve, though single readings scatter. The list shows a part of the results.
experiment: Cell viability qHTS assay in S16 Pmp22-F2sN cells; conditions: S16 Pmp22-F2sN Schwann cells (luciferase reporters placed in the Pmp22 gene) viability, CellTiter-Glo, 24 h; series mostly up to 57.5 µM; activity change, negative = cytotoxicity: at the top concentration; further: nearly all actives have a fitted effect of over 65% in size
Excerpt: Assay Provider: Jim Inglese Ph.D. National Center for Advancing Translational Science, National Institutes of Health, Rockville, MD CMT is a heterogeneous group of neurological disorders that affect approximately 1 in 2,500 people. In particular, the most common form of CMT, CMT1A is genetically linked to the duplication of the PMP22 gene which leads to Schwann cell overexpression, thus manifesting itself as a typical case of dose-sensitive diseases. To identify small molecule compounds that can mediate the expression of PMP22 we developed a phenotypic assay screening strategy by utilizing genome editing techniques to construct Schwann cell lines containing novel reporter technology to monitor the transcriptional or translational regulation of PMP22. For high sensitivity we use a bioluminescent reporter system embedded in the 3' UTR of the PMP22 gene (S16(c9) Pmp22-F2sN) to identify compounds that inhibit gene expression. […] We can further discriminate the effect of all transcriptionally active molecules on PMP22 translation or stability with an assay that incorporates a short NLuc peptide (HiBiT) at the C-terminus of expressed PMP22 (S16(f8) PMP22-HiBiT) allowing alpha complementation and luminescence detection of membrane-associated PMP22 protein. These assays were screened against the NCATS Sytravon Library Collection. Miniaturization of these assays to 1536-well plate format for quantitative high throughput screening (qHTS) yielded rich data sets immediately from the qHTS assay (S16(c9) Pmp22-F2sN), when compared with data from a cell viability assay (Cell TiterGlo) to identify compounds that decreased the output signals through cellular toxicity to streamline the selection process of actives for subsequent characterization using the HiBiT assay (S16(f8) PMP22-HiBiT).
Cell viability assay in S16 Pmp22-F2sN cells PROTOCOL TABLE (format as described by Inglese J, Shamu CE and Guy RK. 2007) SEQUENCE No. (e.g., 1, 2, 3, etc.); […] (e.g., Cells, Incubation, Reagent, etc.); VALUE and DESCRIPTION. 1. Cells. Add 500-1,000 cells in 4 uL in growth media (DMEM High Glucose, No Phenol Red media + 10% heat-inactivated FBS + 1% Pen/Strep supplemented media) per well into Greiner 1536-well white/solid bottom high base, TC-treated plates. 2. Compounds. Library compounds and controls added at 23nL per well, transferred by Pin Tool. 3. Incubation. Incubate plates at 37C, 5% CO2, 95% RH for 24 h. 4. Reagent. Add 3uL CellTiter-Glo per well of Greiner 1536-well plates. 5. Incubation. Incubate plates at room temperature for 15 min., protect from light. 6. Detector. FLuc luminescence measured using CCD-based camera (Viewlux). NOTES (numbers refer to Sequence numbers above; values are from representative experiments) 6. Luminescence Read: Clear filter; Exposure = 1 sec, Gain = High, Speed = Slow, Binning = 2X REFERENCES: 1. Inglese J, Shamu CE and Guy RK, Reporting data from high throughput screening of small molecule libraries, Nature Chemical Biology, 2007, 3(8): 438-441. doi.org/10.1038/nchembio0807-438 2. Yasgar A, Shinn P, Jadhav A, Auld DS, Michael S, Zheng W, Austin CP, Inglese J and Simeonov A, Compound Management for Quantitative High-Throughput Screening. J. Assoc. Lab. Auto., 2008, 13: 79-89. doi: 10.1016/j.jala.2007.12.004
On the % scale 0 is the no-effect control and ±100 the full control effect.

Structure (SMILES) | activity change, negative = cytotoxicity
CCOc1cc(-c2nnc(SCC(=O)NCc3ccc(C)cc3)nc2-c2ccc(OC)c(OCC)c2)ccc1OC | inactive: -13.6%
CC1C(=O)N2CCCc3cc(S(=O)(=O)Nc4ccc(Br)cc4F)cc1c32 (stereo unspecified) | inactive: -1.95%
COc1cccc(NC(=O)C2CCCN2S(=O)(=O)c2ccc3c(c2)n(C)c(=O)c(=O)n3C)c1 (stereo unspecified) | inactive: -2.27%
O=C(Cn1c(=O)oc2cc(S(=O)(=O)NCc3ccccc3)ccc21)N(CCO)Cc1ccccc1 | inactive: -11.3%
CC(=O)Nc1nonc1-c1nnc(SCc2ccc(C)cc2)n1C | inactive: -4.97%
CCOC(=O)CNc1ncnc2c1nnn2C | inactive: -21.1%
CCNC(=O)c1ccc(-n2c(-c3ccccc3)cc3c2CCCCC3)cc1 | inactive: 11.9%
Cc1c(C(=O)Nc2cccc(C(F)(F)F)c2)oc2ccc(S(=O)(=O)N(C)C3CCCCC3)cc12 | inactive: -16.8%
COc1cccc(CNC(=O)CCc2c(C)nn(-c3ccc(N4CCOCC4)nn3)c2C)c1 | inactive: -7.98%
COc1cccc(-c2cc(C(=O)Nc3ccc(F)cc3)[nH]n2)c1 | inactive: 6.57%
CCCNC(=O)c1c2c(nc3ccccc13)C(=O)N(C1CCCCC1)C2 | inactive: 1.46%
CCCc1cc(=O)[nH]c2nnc(SCC(=O)Nc3cccc(C)c3)n12 | inactive: 11%
Cc1cccn2c(=O)c(/C=C(\C#N)c3nc4ccccc4n3C)c(Oc3ccc(Cl)cc3)nc12 | inactive: -5.67%
COC(=O)c1c(NC(=O)COc2ccc(OC)cc2)sc2c1CCC(C)C2 (stereo unspecified) | inactive: -25.6%
CCCc1cc(=O)[nH]c2nnc(SCCC(C)C)n12 | inactive: 2.79%
CCCN1C(=O)C2(c3ccccc31)c1c(oc3cc(C)c(C)cc3c1=O)C(=O)N2CCCOC (stereo unspecified) | inactive: 16%
CCC(=O)N1c2ccccc2CC1C(=O)NCCc1ccc(OC)cc1OC (stereo unspecified) | inactive: 21.7%
COc1ccc(CN2CCN(S(=O)(=O)c3ccccc3)CC2)c(OC)c1 | inactive: -7.56%
CCCn1cc(S(=O)(=O)c2ccc(OC)cc2)c(=O)c2cc(F)c(N3CCCCCC3)cc21 | inactive: -21.3%
CCn1cc(S(=O)(=O)c2ccc(C)cc2C)c(=O)c2cc(F)c(N3CCCC3)cc21 | inactive: 2.01%
Cc1ccc(CSc2nnc3[nH]c(=O)cc(C)n23)cc1 | inactive: -1.13%
CCc1ccc(NC(=O)C2CCN(S(=O)(=O)c3c(C)noc3/C=C\c3ccc(OC)cc3)CC2)cc1 | inactive: 9.88%
COc1cc(C(=O)Nc2ccc(OCc3cc(=O)n4cccc(C)c4n3)cc2)cc(OC)c1OC | inactive: -26.1%
CCOc1ccc(CNC(=O)CCc2cn(CC)c3ccccc23)cc1 | inactive: 15.5%

Structure (SMILES) | activity change, negative = cytotoxicity
CC1=C(c2ccc(C)c(C)c2)S(=O)(=O)N=C1N1CCC(C(=O)N2CCCCC2)CC1 | inactive: -1.47%
O=C(c1cnc(N2CCOCC2)c2ccccc12)N1CCN(c2ccccc2F)CC1 | inactive: -6.24%
CN(C)c1ccc(CNC(=O)c2ccc3c(c2)N(C)C(=O)C2CCCCN32)cc1 (stereo unspecified) | inactive: 8.73%
COc1ccc(-n2nc(C(=O)NCc3ccc(F)cc3)c3c4ccccc4n(C)c3c2=O)cc1 | inactive: 3.7%
CCN(CC)C(=O)c1sc2c(c1C)c(=O)n(CCc1ccccc1)c(=O)n2Cc1cccc(Cl)c1 | inactive: -16.9%
COc1ccccc1CNc1ccc(-c2nc(-c3cccc(C)c3)no2)cc1[N+](=O)[O-] | inactive: -14.4%
CC(C)CCNC(=O)c1cc(Sc2ccc(F)cc2F)nc2ccccc12 | inactive: -9.04%
COc1ccc(N2C(=O)CS(=O)(=O)C23C(=O)N(Cc2c(F)cccc2Cl)c2ccccc23)cc1 (stereo unspecified) | inactive: 0.219%
COc1ccc(NC(=O)CN(C)S(=O)(=O)c2ccc3nc(C)sc3c2)cc1 | inactive: 1.38%
CCOC(=O)C1=C(C(F)(F)F)Nc2ncnn2C1c1cccc(OC)c1OC (stereo unspecified) | inactive: 7.21%
CCOC(=O)c1cnc2c(C)cc(C)cc2c1Nc1ccc(OCc2ccccc2)cc1 | inactive: -11.7%
COc1ccc(NC(=O)C2=C(C)Nc3ncnn3C2c2ccccn2)cc1 (stereo unspecified) | inactive: 1.58%
CNS(=O)(=O)c1cn(CC(=O)N2CCN(c3cccc(Cl)c3)CC2)cc1S(=O)(=O)NC | inactive: -5.16%
CC(C)Oc1ccc(CNC(=O)c2ccccc2NC(=O)c2nsc3ccccc23)cc1 | inactive: 0.24%
O=S(=O)(NCCc1nnc2ccc(SCc3c(F)cccc3Cl)nn12)c1ccccc1 | inactive: -29.6%
COC(=O)c1ccc(CN(Cc2ccc(OC)c(OC)c2)S(=O)(=O)c2cc(C(=O)Nc3cccc(C)c3)ccc2F)cc1 | inactive: 5.07%
Cc1oc(-c2ccccc2F)nc1CSCC(=O)NCCc1ccccc1 | inactive: -17.4%
CCC(Oc1ccccc1)C(=O)Nc1ccc(OCc2cc(=O)n3ccc(C)cc3n2)cc1 (stereo unspecified) | inactive: -1.79%
O=C(CCCCn1c(=O)c2ccccc2n(Cc2ccccc2F)c1=O)NCc1ccccc1Cl | inactive: -17.6%
CCN(CC)C(=O)C1=CC(c2ccc3c(c2)OCO3)=NS(=O)(=O)N1C | inactive: 1.89%
Cc1ccc(NC(=O)CSc2nc3ccc(NC(=O)CCc4ccccc4)cc3s2)c(C)c1 | inactive: 1.3%
CCc1ccccc1NC(=O)CN1C(=O)COc2ccc(S(=O)(=O)N3CCCCCC3)cc21 | inactive: 4.71%
CCN(CC)S(=O)(=O)c1ccc2c(c1)N(CC(=O)NCC(C)c1ccccc1)C(=O)CO2 (stereo unspecified) | inactive: -0.738%
COc1ccccc1CNC(=O)c1ccc2c(c1)N(Cc1ccc(C)cc1)CCS2 | inactive: -3.45%

Structure (SMILES) | activity change, negative = cytotoxicity
CCn1cc(C(=O)N2CCN(c3ccccc3OC)CC2)c(=O)c2cc(S(=O)(=O)N3CCC(C)CC3)ccc21 | inactive: -4.29%
Cc1ccc(-n2ncc3c(N4CCCCCC4)ncnc32)cc1C | inactive: 18.5%
CN(C)c1ccc(CNC(=O)c2cccn2-c2nnc(N3CCCCC3)s2)cc1 | inactive: -21.7%
CCOC(=O)c1cnc2nc(NCc3ccc(OCC)cc3)[nH]n2c1=O | inactive: -6.88%
Cc1ccc(C)c(NC(=O)CSc2nc(-c3ccccc3Cl)nc3c2Cc2c(CO)cnc(C)c2O3)c1 | inactive: -1.06%
CCCCOc1ccc(C(=O)NCCc2csc(-c3ccc(OC)cc3)n2)cc1 | inactive: -12.9%
CCN(Cc1ccccc1)S(=O)(=O)c1ccc2[nH]c3c(c2c1)CCCCC3 | inactive: -1.12%
CN(Cc1ccccc1)c1ccc(-c2nc(-c3cccnc3)no2)cc1[N+](=O)[O-] | inactive: 11.8%
CCOC(=O)c1cccc(NC(=O)c2nn(-c3ccc(OC)cc3)c(=O)c3c2c2ccccc2n3C)c1 | inactive: 6.66%
Cc1cc(-c2nc3ncccc3o2)ccc1NC(=O)COc1cc(C)c(Cl)c(C)c1 | inactive: 1.89%
O=C(NCc1ccc(F)cc1)C(=O)NCC(c1cccs1)S(=O)(=O)c1cccs1 (stereo unspecified) | inactive: 5.98%
CCc1ccc(OCC(=O)Nc2ccc(Cl)c(-c3nc4ncccc4o3)c2)cc1 | inactive: -1.22%
O=C(COc1ccccc1)Nc1c(Cl)ccc2nsnc12 | inactive: 16.9%
Cc1ccc(NS(=O)(=O)c2ccc3[nH]c4c(c3c2)CCCCC4)cc1 | inactive: -21.6%
COc1ccc(S(=O)(=O)c2cn(C)c3cc(N4CCOCC4)c(F)cc3c2=O)cc1 | inactive: -0.532%
Cc1ccc(OCc2cc(=O)n3cc(C)sc3n2)c(C)c1 | inactive: 6.28%
CC(C)(C)NC(=O)CCSc1nc(-c2ccc3c(c2)OCO3)cc(C(F)(F)F)n1 | inactive: -24.7%
CCN1CCN(C(=O)c2c(C)nn(-c3ccc(F)cc3)c2-n2cccc2)CC1 | inactive: -3.59%
Cc1cccc(-n2c(-c3ccco3)nc3c(cnn3-c3ccc(F)cc3)c2=O)c1 | inactive: 3.59%
Cc1ccc(-n2cnc3cc(C(=O)NC4CCCCCC4)ccc32)cc1Cl | inactive: 0.0717%
COc1ccc(NC(=O)C2CCN(S(=O)(=O)c3c(C)noc3/C=C/c3ccc(C)cc3)CC2)cc1Cl | inactive: 5.83%
Cc1c(CNCCCc2ccccc2)c(C(=O)O)c(C)n1Cc1cccc(Cl)c1 | inactive: 17.4%
COc1ccc(-c2nn(C)c3sc(C(=O)N4CCN(c5cccc(Cl)c5)CC4)cc23)cc1OC | inactive: 3.87%
CCOc1ccc2nc(N3CCCC(C(=O)NCc4ccc(C)cc4)C3)sc2c1 (stereo unspecified) | inactive: -4.24%

Structure (SMILES) | activity change, negative = cytotoxicity
CC(C)NC(=O)C1CCN(C(=O)N2CC(C)Oc3ccccc32)CC1 (stereo unspecified) | inactive: 9.32%
COc1ccccc1NC(=O)Cn1c(=O)n(Cc2nc(-c3ccccc3)no2)c(=O)c2ccccc21 | inactive: 2.83%
Cc1ccc(C)c(NC(=O)Nc2csc3c2CCCC3)c1 | inactive: -0.531%
CCS(=O)(=O)NCCc1csc2nc(-c3ccc(C)cc3)nn12 | inactive: -3.75%
O=C(COCc1cc(-c2cccs2)on1)Nc1cccc(O)c1 | inactive: -10.7%
COc1ccc(NC(=O)Cn2cc(C(=O)c3cccs3)c3ccccc32)cc1 | inactive: -7.94%
CCC1=C(c2ccc(C)cc2)S(=O)(=O)N=C1N1CCC(C(=O)N2CCCCC2)CC1 | inactive: 11.8%
O=C(Cn1ncc2c3ccccc3n(Cc3ccc(F)cc3)c2c1=O)NCCC1=CCCCC1 | inactive: 1.86%
Cc1cn2c(=O)cc(COC(=O)c3cccc(NC(=O)c4ccccc4Cl)c3)nc2s1 | inactive: -1.02%
Cc1ccc(CNc2ncnc3c2nnn3C)cc1 | inactive: -12.2%
CCC(CC)c1nn2c(=O)cc(COc3ccc(NC(=O)c4ccc(C)cc4)cc3)nc2s1 | inactive: 25.6%
Cc1nn(C(=O)c2ccc(Cl)cc2)c(C)c1S(=O)(=O)N1CCOCC1 | inactive: 3.78%
Cc1cccc(OCC(=O)N(Cc2ccc(C(C)(C)C)cc2)Cc2ccco2)c1 | inactive: -15.4%
CN(C)c1ccc(/C=C/c2noc(-c3ccccc3O)n2)cc1 | inactive: 0.653%
COc1ccccc1NC(=O)C1=C(C)Nc2nc(SCc3ccccc3Cl)nn2C1c1ccccn1 (stereo unspecified) | inactive: 2.66%
COc1ccc(OCC(=O)NCC(c2ccc(OC)cc2)N2CCCCC2)cc1 (stereo unspecified) | inactive: 2.55%
COc1ccc(C2C(C(=O)Nc3cccnc3)=C(C)Nc3nc(-c4ccccc4)nn32)cc1OC (stereo unspecified) | inactive: 7.58%
O=c1[nH]c(=O)n(C2CCCCC2)c(O)c1C1=Nc2ccccc2SC(c2ccccc2)C1 (stereo unspecified) | inactive: 7.69%
COc1ccc(-c2nc(CSc3nnc(C)n4c3cc3occc34)c(C)o2)cc1OC | inactive: 11.2%
CC(C)C(NS(=O)(=O)c1ccc2c(c1)oc(=O)n2C)C(=O)NCCc1ccccc1 (stereo unspecified) | inactive: -21%
COc1cc(OC)cc(C(=O)N2CCN(C(=O)COc3ccccc3)CC2)c1 | inactive: 9.13%
Cc1ccc(C(c2cccc(Br)c2)c2c(C)[nH]c3ccccc23)s1 (stereo unspecified) | inactive: -1.67%
CC(C)c1ccc(NC(=O)C(C)N(c2ccccc2)S(C)(=O)=O)cc1 (stereo unspecified) | inactive: 8.24%
O=c1c2ccccc2n2c(-c3ccc(Cl)cc3)nnc2n1CCc1ccccc1 | inactive: 9.43%
